Assay results from PubChem BioAssay AID1645882 (National Center for Advancing Translational Sciences (NCATS), 2021).
Screen size: about 16,000 compounds; about 120 (0.75%) were called active. Another 4% or so got no clear call; they are omitted. The call rests on the fitted dose curve; in most records, active means well fitted inhibition curve with a large enough effect; inconclusive means small, poorly fitted or top-dose-only effect; inactive means no such curve, though single readings can be large or run the other way. Some of the results follow. *1 amine or outer side, *2 acyl side, *3 side chain or, on linkers, in order; H or OH if unused. Where a SMILES comes first, the peptide text is derived from it. Bridges are numbered along the chain shown (N, C = ends). [ ]: non-standard residue; d: D form. The star is where a group is joined. X5 = NC1=N[C@@H]([C@H](N[*:1])C(=O)[*:2])C[C@H](O)N1; ΔAla(Z-3-ureido) = NC(=O)N/C=C(\N)C(=O)O; β3hOrn = NCCC[C@H](N)CC(=O)*; Dap = NC[C@H](N)C(=O)O

Biological target: Rap guanine nucleotide exchange factor 3 (Homo sapiens) (UniProt O95398)
Sequence of UniProt O95398 (O95398 whole entry, looked up): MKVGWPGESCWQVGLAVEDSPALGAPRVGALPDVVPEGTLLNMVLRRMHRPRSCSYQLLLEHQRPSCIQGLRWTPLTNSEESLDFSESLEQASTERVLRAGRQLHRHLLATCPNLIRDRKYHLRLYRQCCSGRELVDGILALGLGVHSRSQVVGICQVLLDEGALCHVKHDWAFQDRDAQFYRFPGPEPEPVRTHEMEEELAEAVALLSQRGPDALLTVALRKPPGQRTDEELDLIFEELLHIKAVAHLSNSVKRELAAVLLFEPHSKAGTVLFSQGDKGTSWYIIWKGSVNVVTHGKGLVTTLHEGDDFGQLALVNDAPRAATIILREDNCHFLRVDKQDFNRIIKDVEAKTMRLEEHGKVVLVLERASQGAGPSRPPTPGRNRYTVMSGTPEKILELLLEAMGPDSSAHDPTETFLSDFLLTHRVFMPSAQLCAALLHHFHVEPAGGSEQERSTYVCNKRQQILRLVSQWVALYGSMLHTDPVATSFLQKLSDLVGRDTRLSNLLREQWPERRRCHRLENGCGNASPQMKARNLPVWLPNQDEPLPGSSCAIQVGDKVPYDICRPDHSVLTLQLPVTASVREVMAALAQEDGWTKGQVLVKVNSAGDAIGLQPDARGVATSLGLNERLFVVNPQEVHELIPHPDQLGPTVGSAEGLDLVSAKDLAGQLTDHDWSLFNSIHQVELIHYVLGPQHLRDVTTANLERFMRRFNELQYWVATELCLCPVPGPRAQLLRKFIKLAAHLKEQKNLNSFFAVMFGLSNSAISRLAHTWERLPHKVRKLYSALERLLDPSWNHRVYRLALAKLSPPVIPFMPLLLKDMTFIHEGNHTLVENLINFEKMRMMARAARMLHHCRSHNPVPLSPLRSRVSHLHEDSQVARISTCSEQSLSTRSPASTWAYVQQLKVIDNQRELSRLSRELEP
Experiment: Validation qHTS for antagonist of cAMP-regulated guanine nucleotide exchange factor 3 (EPAC1);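 further: plate controls were DMSO for no effect and ATA control for full effect; nearly all actives have a fitted effect of over 75% in size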
Settings: EPAC1 Rap1B-BODIPY-GDP exchange, fluorescence; series mostly up to 150 µM; activity change, negative = inhibition: at the top concentration
In short: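 Nucleotide exchange followed as fluorescence loss when BODIPY-GDP leaves Rap1B (480 nm excitation, 540 nm emission), read at 5 min intervals over 30 min. Reaction: 100 nM EPAC1, 250 nM RAP1B-BODIPY-GDP, 50 uM GDP; ATA and DMSO define normalization.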

Activity change, negative = inhibition, inactive:
N#Cc1cccc(-c2ccc3ncnc(NCCN4CCOCC4)c3c2)c1 5.59%
CN(C)c1ccc(/C=C/c2ccnc3c(-c4ccccc4)cccc23)cc1 17.8%
CSc1ccccc1C(=O)NCc1nc(-c2cccc(NC(=O)c3ccoc3C)c2)oc1C -6.38%
CC(C)C1CCC(C(=O)N[C@H](Cc2ccccc2)C(=O)O)CC1 (stereo partly drawn) -6.33%
CCCCN1C[C@H](Cc2ccccc2)[C@@H](CC(=O)NCc2ccc(OC)cc2)C1=O 7.35%
COc1cccc(Cn2c(=O)c(CCc3ccccc3)nc3cnc(N4CCN(C)CC4)nc32)c1 6.89%
COc1ccc(CNc2ncncc2-c2ccccc2C(F)(F)F)c(OC)c1 -21%
COc1ccc(-n2c(CCNC(=O)c3ccc(-c4cccc(F)c4)cc3)nnc2SC)cc1 -24%
NC(=O)COCCN1CCN(C(c2ccccc2)c2ccc(Cl)cc2)CC1 (stereo not drawn) 33.1%
C[C@H]1C(O)[C@@]23CCC4C5(C=[N+](CCO)C[C@]4(C)CCC5)C2C[C@@H]1C3 (stereo partly drawn) 15.8%
COC(=O)N1CCC2(CC1)CCN(c1ccccc1)CC2 15.6%
CCCCCCN(CCCCCC)C(=O)Cc1c(-c2ccc(Cl)cc2)[nH]c2ccc(Cl)cc12
CC1(C)S[C@@H]2[C@H](NC(=O)[C@H](N)c3ccccc3)C(=O)N2[C@H]1C(=O)OCOC(=O)[C@@H]1N2C(=O)C[C@H]2S(=O)(=O)C1(C)C 14.8%
O=C1c2cccc3c2[C@H](CCC3)CN1[C@@H]1CN2CCC1CC2 -3.77%
COc1cccc(Nc2ncc3nc(-c4ccc(Cl)cc4)c(=O)n(CCC#N)c3n2)c1 37.4%
O=C(c1cc(C(F)(F)F)cc(C(F)(F)F)c1)N1CCC[C@@]2(CCN(c3ccncc3)C2)C1 14.7%
COc1ccc(C(C)C(=O)c2ccc(O)cc2O)cc1 (stereo not drawn) -24.8%
NC1(C(=O)O)CCc2cc(C(=O)O)ccc21 (stereo not drawn)
CCCCCCCCCCC(CO)CCCCCCCC (stereo not drawn) 19.5%
NC(CO)C(=O)NNCc1ccc(O)c(O)c1O (stereo not drawn)
C=C1CCC2C(CC2(C)C)C(=O)CCC1O (stereo not drawn) 12.6%
Nc1nc2c(c(=O)[nH]1)N(C=O)C(CNc1ccc(C(=O)N[C@@H](CCC(=O)O)C(=O)O)cc1)CN2 (stereo partly drawn) 18.2% [at 75.8 µM]
COc1ccccc1CCNc1ncnc2sc(C(=O)N3CCCN(C=O)CC3)c(C)c12 -6.89%
COCC(=O)Nc1cc(Sc2ccccc2)ccc1N=C(NC(=O)OC)NC(=O)OC -2.96%
COc1cccc(Cn2c(=O)cnc3cnc(N(C)C)nc32)c1 8.36%
C[C@]12CCC3c4ccc(O)cc4CCC3C1CCC2OC(=O)CCC1CCCC1 (stereo partly drawn) 0.0163%
Cc1nc2cnc(N3CCOCC3)nc2n(C[C@H]2CCCO2)c1=O 13.4%
COc1ccc2c(c1OC)C(=O)N1c3ccccc3C(=O)OC21 (stereo not drawn) 1.5%
Cc1cccc(C(=O)NCN2CCN(c3ccccc3C#N)CC2)c1
NCCC[C@H](N)CC(=O)N[C@H]1CNC(=O)[C@H]([C@H]2C[C@H](O)NC(N)=N2)NC(=O)/C(=C/NC(N)=O)NC(=O)[C@H](CO)NC(=O)[C@H](CO)NC1=O (β3hOrn-[Dap]SS[ΔAla(Z-3-ureido)][X5]; lactam 1-C) 15.5%
CS(=O)(=O)Nc1cccc(-c2cncnc2-n2ccnc2)c1 8.36%
C/C=C1/C(=O)C[C@@H]2[C@H]3CCC4=CC(=O)CC[C@]4(C)[C@@H]3CC[C@]12C 18.8%
CC12CCC3C(=CCc4cc(O)ccc43)C1CCC2=O (stereo not drawn) -11.9%
O=C(NC1CCCCC1)NC1CCCCC1 -4.52%
COc1ccccc1CNc1ncnc2ccc(-c3ccc(C(=O)N(C)C)cc3)cc12 -14.4%
Cc1noc(C)c1-c1nccc(N(C)Cc2ccco2)n1 0.0846%
O=C(Cc1cscn1)N1CCOc2ccc(CN3CCN(c4ccccn4)CC3)cc2C1 13.2%
FC1(F)C(F)(F)C(F)(F)C2(F)C(F)(F)C(F)(F)C(F)(F)C(F)(F)C2(F)C1(F)F (stereo not drawn) 21.2%
CN(C/C=C/C#CC(C)(C)C)Cc1cccc2ccccc12 8.84%
CCCCCC(=O)O[C@@]1(C(C)=O)CCC2C3CCC4=CC(=O)CC[C@@]4(C)C3CC[C@]21C (stereo partly drawn) -7.64%
O=c1[nH]cnc2c1ncn2[C@H]1CC[C@@H](CO)O1 10.9%
CCCCCCc1ccc(N2C[C@H](Cc3ccccc3)[C@@H](CC(=O)Nc3ccccc3)C2=O)cc1 -0.095%
NCC1OC(OC2C(N)CC(N)[C@@H](O)[C@@H]2OC2O[C@H](CO)[C@@H](O[C@@H]3OC(CN)C(O)C(O)C3N)C2O)C(N)C(O)C1O (stereo partly drawn) 14.3%
N.N.O=C(O)C1(C(=O)O)CCC1.[Pt]
COc1cc2cc[n+]3cc4c(OC)c(OC)ccc4cc3c2cc1OC -7.46%
Fc1ccc([C@@H]2CCNC[C@H]2COc2ccc3c(c2)OCO3)cc1
Cc1cccc(C)c1N(CCCc1cccnc1)C(=O)C(C)N (stereo not drawn) 14.4%
Cc1nc2cncnc2n(-c2ccccc2)c1=O -11.2%
Clc1ccc(Nc2nnc(Cc3ccncc3)c3ccccc23)cc1
C=CC(=O)O 25.7%
COc1cc2c(cc1OC)CN(C(=O)[C@@H]1C[C@H](NCc3cn(C)c4ccccc34)CN1C1Cc3ccccc3C1)CC2 -8.75%
Cc1cc(O)c2c(c1)C(=O)c1cc(O)cc(O)c1C2=O
CN(C)C(=O)c1ccc(-c2cc(N(C)Cc3ccco3)ncn2)cc1 -2.77%
O=S(=O)(NCc1ccc(F)cc1)c1ccccc1Br 6.07%
CCCCCCOc1ccc(C(=N)N(CCCC)CCCC)c2ccccc12 -3.39%
O=C1[C@H](Cc2ccccc2)NCCCC[C@H](c2ccc(Cl)cc2)N1Cc1ccccc1 -10.7%
Cc1noc(C)c1C(=O)N1CCC[C@@]2(CCN(C(=O)Nc3cccc(C#N)c3)C2)C1 8.8%
CS(=O)(=O)Nc1cccc(-c2ccc3ncnc(NCCN4CCOCC4)c3c2)c1 7.9%
CN(C)C(=O)Oc1cccc([N+](C)(C)C)c1
Cc1ccc2c(c1)C(N1CCN(C)CC1)=Nc1cccnc1N2 2.09% [at 75.8 µM]
COc1cccc(-c2cc(=O)c3ccc(OC)cc3o2)c1 12.3%
CN1CCC(OC(c2ccccc2)c2ccccc2)CC1
COc1cccc(Cn2c(=O)c(CCc3ccccc3)nc3cnc(N4CCOCC4)nc32)c1 -8.5%
CCOC(=O)[C@H](CCc1ccccc1)N[C@@H](C)C(=O)N1Cc2cc(OC)c(OC)cc2C[C@H]1C(=O)O 10.6%
O=C(Oc1cccc2cccnc12)c1ccccc1 12.2%
C/C(O)=C1\C(=O)[C@@H]2[C@H]3c4c[nH]c5cccc(c45)C[C@H]3C(C)(C)N2C1=O
C/C=C1\[C@H]2C=C(C)C[C@]1(N)c1ccc(=O)[nH]c1C2 13.4%
O=C(CS)Nc1ccccc1 3.21%
O=C(NCC1CCC2(CCN(Cc3c[nH]c4ccccc34)CC2)O1)C1CCOCC1 (stereo not drawn) 2.25%
COc1ccc(-c2nc3cnc(N4CCN(C)CC4)nc3n(-c3ccc(OC)cc3)c2=O)cc1 19%
O=c1[nH]cnc2[nH]ncc12
Nc1ccc2c3c(cccc13)C(=O)NC2=O -6.18% [at 75.8 µM]
COC(=O)[C@@H]1CCCN1C(=O)c1c(OC)cc(=O)n2c1CCN(Cc1ccc(C)o1)CC2 -1.79%
COc1ccc(-n2c(=O)c(CCc3ccccc3)nc3cnc(OC)nc32)cc1 10.3%
c1ccc(Nc2ncnc3ccc(-c4ccc5c(c4)OCO5)cc23)cc1 19.9%
CN(C)c1ccc(/C=C/c2c3ccccc3nc3ccccc23)cc1 21.6%
CCCCCCCCN1[C@@H](CC(=O)OC)c2ccc(/C=C/C(=O)OC)cc2S1(=O)=O 11.9%
CC(C(=O)O)c1ccc(C(=O)c2cccs2)cc1 (stereo not drawn)
CN(CC1COCCO1)C(=O)c1cnn(-c2nccc(-c3ccccc3C(F)(F)F)n2)c1C1CC1 (stereo not drawn) 10.8%
CCCN1CCC(=O)N([C@H](CSc2ccccc2)c2ccccc2)CC1 -10.4%
O=C(CCc1cccnc1)NCC1Cc2cccc(-c3ncccn3)c2O1 (stereo not drawn) 16.3%
CN(Cc1ccco1)c1ncncc1-c1cccc(C#N)c1 -5.6%
COc1ccc(/C=C/C(=O)c2ccc(OC)cc2OC)cc1 -13.4%
COc1cc2ncnc(Nc3ccc(F)c(Cl)c3)c2cc1OCCCN1CCOCC1 22.4%
CC(=O)NCCNc1nc(-c2cccnc2)nc2ccccc12 1.96%
Cc1cc2c(c(-c3nc4ccccc4s3)c1)OC(CNC(=O)c1occc1C)C2 (stereo not drawn) 6%
Cc1cc(=O)[nH]c2ccc([N+](=O)[O-])cc12 5.23%
CCC1CN(CCNC(=O)C(C)(C)O)Cc2cc(OC)ccc2O1 (stereo not drawn) 9.58%
C=CC(C)(O)CCCC(C)CCCC(C)CCCC(C)C (stereo not drawn) 6.5%
OC[C@H]1NC[C@H](O)[C@@H](O)[C@H]1O 10.2%
Clc1cccc[n+]1CCCCCC[n+]1ccccc1Cl 18.6%
CN1CCC[C@@H]1CCO[C@](C)(c1ccccc1)c1ccc(Cl)cc1
CCOc1ccc(NC(C)=O)cc1
Cc1ccc(C)c(CN2C[C@H](Sc3nc4ccccc4[nH]3)C[C@H]2C(=O)N2CCCN(C)CC2)c1 11.6%
COc1cc(/C(C)=C/c2ccccc2)c2c(c1)oc1ccccc12 4.59%
O=C(O)C1CC[C@@](C(=O)O)(c2ccccc2)c2ccccc21 (stereo partly drawn) 11%
C[C@@H]1CN(Cc2ccc3c(c2)CN(C(=O)CCc2nc4ccc(F)cc4[nH]2)CCO3)C[C@H](C)O1 13.1%
COc1ccc(-c2nc3cnc(N4CCNCC4)nc3n(CCc3ccccc3)c2=O)cc1 16.4%
CC(C)[C@H](N)C(=O)OCC(CO)OCn1cnc2c(=O)[nH]c(N)nc21 (stereo partly drawn) 7.62%
CCC1COCCS(=O)(=O)N1Cc1ccccc1 (stereo not drawn) 16.9%
COc1ccc(F)c(CN2CCOc3ccc(CN4CCC(Oc5cccnc5)CC4)cc3C2)c1 17.4%
COCC(=O)N1CCC2(CC1)CCN(c1cccc(-c3ccccc3)c1)CC2 -7.18%
O=c1[nH]cnc2c1ncn2C1CC(O)C(CO)O1 (stereo not drawn) 16.4%
